Experimental data as given in publication PMC4336329 (PLoS ONE, 2015).
Out of some 310,000 compounds screened, about 14,000 (4.5%) showed an effect of 50% or more. Effects have a minus sign here. The list shows a part of the results.

target: human ether-à-go-go-related gene (hERG) potassium channel (human, UniProt Q12809); assay: primary screen, population patch clamp on CHO cells stably expressing hERG
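Further: peak tail current of the secondary pulse compared with the same well before compound.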

Sequence of human ether-à-go-go-related gene (hERG) potassium channel (Q12809 whole entry, looked up): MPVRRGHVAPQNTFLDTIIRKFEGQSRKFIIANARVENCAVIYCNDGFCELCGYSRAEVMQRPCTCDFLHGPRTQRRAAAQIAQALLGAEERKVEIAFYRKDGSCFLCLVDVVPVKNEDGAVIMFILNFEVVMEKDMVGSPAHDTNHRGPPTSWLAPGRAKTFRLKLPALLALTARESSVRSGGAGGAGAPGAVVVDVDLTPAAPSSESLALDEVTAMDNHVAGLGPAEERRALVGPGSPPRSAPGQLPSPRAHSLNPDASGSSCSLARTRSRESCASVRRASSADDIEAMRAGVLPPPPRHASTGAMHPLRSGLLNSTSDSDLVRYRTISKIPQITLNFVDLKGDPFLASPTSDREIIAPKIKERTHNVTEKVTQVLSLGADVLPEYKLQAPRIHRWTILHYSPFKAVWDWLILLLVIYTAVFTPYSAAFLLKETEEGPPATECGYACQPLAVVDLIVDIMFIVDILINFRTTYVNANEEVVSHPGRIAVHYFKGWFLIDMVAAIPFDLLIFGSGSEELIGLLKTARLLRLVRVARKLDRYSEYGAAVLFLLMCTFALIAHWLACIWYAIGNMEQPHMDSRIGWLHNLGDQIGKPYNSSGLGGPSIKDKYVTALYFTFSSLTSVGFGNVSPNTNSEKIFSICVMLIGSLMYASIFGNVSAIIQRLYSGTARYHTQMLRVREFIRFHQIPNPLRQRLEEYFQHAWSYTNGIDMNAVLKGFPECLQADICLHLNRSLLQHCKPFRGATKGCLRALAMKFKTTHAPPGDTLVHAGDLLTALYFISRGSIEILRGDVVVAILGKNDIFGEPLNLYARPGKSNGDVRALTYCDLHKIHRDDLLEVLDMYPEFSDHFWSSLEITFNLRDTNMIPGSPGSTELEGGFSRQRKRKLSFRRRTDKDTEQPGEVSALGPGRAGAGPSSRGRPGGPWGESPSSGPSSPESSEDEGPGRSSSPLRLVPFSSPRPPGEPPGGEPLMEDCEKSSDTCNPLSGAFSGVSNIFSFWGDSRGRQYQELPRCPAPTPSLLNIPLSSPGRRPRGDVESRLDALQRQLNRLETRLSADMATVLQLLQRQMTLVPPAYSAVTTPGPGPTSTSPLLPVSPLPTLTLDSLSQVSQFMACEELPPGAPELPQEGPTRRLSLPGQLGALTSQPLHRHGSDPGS

Structure (SMILES)	hERG current change (%, negative = inhibition) at 10uM
Cc1ccc(NS(=O)(=O)c2cc([N+](=O)[O-])ccc2NNC(=S)Nc2cc(C)ccc2C)c(C)c1	-0.00412%
CC12CN(C(=O)c3ccccc3Br)CC(C)(CN(C(=O)c3ccccc3Br)C1)C2=O	-4.96%
Cc1cc(C)c2cc(CN(Cc3cccnc3)C(=O)c3ccc(F)cc3)c(Cl)nc2c1	-64.7%
Cc1ccc(C)c(Nc2nc3ccc(C)cc3n3cnnc23)c1	24.4%
Cc1cc(Cl)ccc1OCC(=O)OC(C)C(=O)N(C)C (stereo not shown)	6.34%
COCCOC(=O)C1=C(C)NC(C)=C(C(=O)OCCOC)C1/C=C/c1ccccc1OC	0.555%
CC(=O)N1CCN(C(=O)c2ccc(Oc3ccccc3)cc2)CC1	19.1%
COc1ccc(OCC(=O)Nc2cc3oc4ccccc4c3cc2OC)cc1	33.7%
O=C(Nc1ccc2c(c1)OCCO2)c1cc2ccccc2o1	-6.6%
Cc1ccccc1CS(=O)(=O)CCC(=O)NCc1ccccn1	16.8%
CC1CC(C)CN(CCOc2cccc(Cl)c2Cl)C1.O=C(O)C(=O)O (stereo not shown)	-35.9%
CCOC(=O)C1=C(N)Oc2cc(O)ccc2C1c1cccc([N+](=O)[O-])c1 (stereo not shown)	-11.3%
Cc1nn(-c2ccccc2)c(C)c1C(=O)NCc1ccc(S(N)(=O)=O)cc1	20.1%
COCCCNC(=S)N1CCN(c2ccc([N+](=O)[O-])cc2)CC1	-68%
CCN1CCN(C/C(C)=C/c2ccccc2)CC1	4.72%
CCN(Cc1ccccc1)C(=O)C(C)OC(=O)c1cc(S(=O)(=O)Nc2c(C)n(C)n(-c3ccccc3)c2=O)ccc1C (stereo not shown)	-19.3%
O=[N+]([O-])c1ccc(-c2cnc(NO)nc2)cc1	-28%
O=C(NCc1ccc(F)cc1)C1CCCN(S(=O)(=O)c2cccc3nonc23)C1 (stereo not shown)	19.6%
Cc1cccc(C#Cc2ccccc2)n1.Cl	-2.49%
Cc1c(C(=O)NCc2cccnc2)oc2ccc(S(=O)(=O)N3CCCC(C)C3)cc12 (stereo not shown)	-3.86%
COc1ccc(NC(=O)O/N=C/c2ccc(N(C)C)cc2)cc1	1.19%
O=C(COc1ccc(Cl)cc1Cl)N/N=C/c1ccc(OC2OC(CO)C(O)C(O)C2O)cc1 (stereo not shown)	-11.5%
Cc1cc(C)n(CCO)c(=O)n1.Cl	29%
CC(C)c1ccc(NC(=O)CSc2nc(=O)[nH]c3c2CCCC3)cc1	-23.9%
Cc1cccc(NC(=O)c2ccc(NCC3CCCO3)c([N+](=O)[O-])c2)c1 (stereo not shown)	-0.991%
COCCSc1ccccc1C(=O)NCc1cccnc1	18.7%
COc1cc(OC)c([N+](=O)[O-])cc1/C=N/NC(=O)c1ccncc1	-7.21%
COc1cc(O)c(C(CCN2CCOCC2)c2ccc(N(C)C)cc2)c(OC)c1 (stereo not shown)	7.96%

Structure (SMILES)	hERG current change (%, negative = inhibition) at 10uM
O=C(C1CCCN(S(=O)(=O)c2cccc3nsnc23)C1)N1CCc2ccccc21 (stereo not shown)	-21.9%
COc1ccccc1C(=O)C1CCCN(Cc2cccc(OCCO)c2)C1 (stereo not shown)	-19.6%
CC(C)N(CCCNC(=O)C1CCC(CNS(=O)(=O)c2ccccc2)CC1)Cc1ccccc1 (stereo not shown)	-42.1%
COc1ccc(OC)c(NC(=O)c2cccnc2Sc2cc(C)ccc2C)c1	-2.28%
O=C(c1cc(Cl)ccc1O)N1CCN(S(=O)(=O)c2cccs2)CC1	8.1%
CCCC(c1nnnn1CS(=O)(=O)c1ccc(C)cc1)N1CCN(c2ccc(F)cc2)CC1 (stereo not shown)	-4.41%
Cc1c(-c2ccccc2)oc2c(C(=O)N3CCN(c4ccc([N+](=O)[O-])cc4)CC3)cccc2c1=O	-75.4%
Cc1ccccc1N1CCN(C2CCCN(C(=O)Cc3c(C)noc3C)C2)CC1 (stereo not shown)	-8.91%
O=C(NCc1cccnc1)Nc1ccc(Cl)cc1	-41.5%
Cc1onc(-c2c(Cl)cccc2Cl)c1CO/N=C(\C#N)c1c(Cl)cccc1Cl	16.5%
CCOC(=O)C1=C(c2cccc(F)c2)NC(=S)NC1C (stereo not shown)	-9.26%
CCOC(=O)c1sc2nc(NC(=O)COc3ccccc3)sc2c1C	11.9%
CCOc1ccc(/C=C/C(=O)OCC(=O)Nc2cccc(S(=O)(=O)N3CCCC3)c2)cc1	-22.5%
Cn1cc(CC(=O)NCCN2CCOCC2)c2ccccc21	2.23%
COc1ccc(CC(CC(=O)O)C(=O)Nc2ccc(OC)cc2)cc1 (stereo not shown)	10.2%
COC(=O)c1ccc(CSc2nnc(NC(=O)C3CCCO3)s2)cc1 (stereo not shown)	-23.5%
COc1ccc(CCC(=O)O)c(O)c1	9.96%
COc1cccc(CN2CC(C(=O)NC3(c4ccccc4)CC3)CCC2=O)c1 (stereo not shown)	-7.23%
CCC(NC(=O)c1cc(COc2ccc(C)nc2)on1)c1ccc(C)cc1 (stereo not shown)	-19.3%
Cc1cc([N+](=O)[O-])cc2c1-c1ncccc1C2=Nc1ccccc1	-9.15%
O=C(OCN1C(=O)C(=O)c2ccccc21)c1ccc(Cl)cc1	26.6%
CCC(CC)NC(=O)COC(=O)c1ccc(OCC(=O)Nc2ccccc2OC)c(OC)c1	11.4%
Cn1c(=O)[nH]c(=O)c2c1nc(SCC(=O)O)n2Cc1ccccc1	-5.45%
CCOc1ccc(CCNC(=O)CSCC(=O)Nc2ccc(OC)cc2)cc1OCC	11.5%
CC(C)Cc1nc(Nc2ccccc2C#N)c2nnn(Cc3ccccc3)c2n1	-13.5%
O=C(OCc1ccc(Br)cc1)c1cnc(Cl)c(Cl)c1	25.2%
CC(OC(=O)c1ncc(Cl)c(Cl)c1Cl)C(=O)NC1CCCCC1C (stereo not shown)	7.43%
